Several values for one entry are separate records, joined by “and”; a condition that tells them apart may be missing. Equal entries are not always repeated. Screen size: about 420,000 compounds; about 64,000 (15%) were called active. Inconclusive means that the source gave no clear call. Such entries were picked first, then a sample of the others. Calls come from the whole dose curve; as a rule, active = well fitted inhibition curve with a large enough effect; inconclusive = small, poorly fitted or top-dose-only effect; inactive = flat fitted curve, though single readings scatter. A potency beside an inconclusive call is a rough fit, not a confirmed value.
Test: qHTS for Inhibitors of human tyrosyl-DNA phosphodiesterase 1 (TDP1): qHTS in cells in absence of CPT; note: nearly all actives have a fitted effect of over 55% in size
Settings: DT40 Tdp1-/- hTDP1 cells, no CPT, ATP luminescence, 48 h; activity change, negative = growth inhibition: at 46.2 µM (top of the series) unless noted
Procedure, shortened: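 Camptothecin absent (DMSO only). Human TDP1-complemented DT40 knockout cells, 400 cells/well, 37 °C for minimum 48 hr; ATP measured via CellTiter-Glo, 30 min dark incubation, luminescence.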
% is set by controls: 0 for no effect and ±100 for the full control effect; potency is the fitted concentration of half-maximal effect; tags give direction and shape of the fitted curve.

Q: Which Potency does the source give for `Cc1ccccc1NC(=O)c1ccc(N/N=C/c2ccccc2O)c([N+](=O)[O-])c1` here?
A: Its Potency is active: 10.3 µM.

Q: For `CCCC(=O)OC1=CN(Cc2ccccc2)S(=O)(=O)c2ccccc21`, which “activity change, negative = growth inhibition” value is on record?
A: Its value is inactive: -21.5%.

Q: For `Cc1cccc(NC(=O)C2CCN(S(=O)(=O)c3ccc4c(c3)C(C)(C)C(=O)N4C)CC2)c1C`, which Potency is on record?
A: Its Potency is inconclusive: 29.1 µM [inhibitor, single point].

Q: With `COc1ccc(NC(=O)COC(=O)CCc2ccccc2)c(OC)c1` as the compound, how does the “activity change, negative = growth inhibition” value read?
A: The value was inactive: -27.1%.

Q: Which Potency does the source give for `c1ccc(Cn2ncc3c(NCc4ccco4)ncnc32)cc1` here?
A: The Potency was inconclusive: 14.6 µM [inhibitor, single point].

Q: Which “activity change, negative = growth inhibition” value does the source give for `O=C(c1ccco1)N1CCN(Cc2nc3cc(Cl)ccc3c(=O)[nH]2)CC1` here?
A: Its value is inactive: -26%.

Q: Which Potency does the source give for `Cc1ccc(Cl)cc1NC(=O)COC(=O)CC(C)(C)C` here?
A: The Potency was inconclusive: 25.9 µM [inhibitor, single point].

Q: Which “activity change, negative = growth inhibition” value does the source give for `N#CCCn1c(=S)[nH]c2ccccc21` here?
A: Its value is inactive: -11.9%.

Q: With `Cc1cc2nc(-c3cccnc3SCC(=O)NC(C)C)[nH]c2cc1C` as the compound, how does the Potency read?
A: The Potency was inconclusive: 25.9 µM [inhibitor, single point].

Q: Which Potency does the source give for `CCN(CC(=O)Nc1c(F)cccc1F)C(=O)c1cc(S(=O)(=O)N(CC)CC)ccc1N1CCCCC1` here?
A: Its Potency is inconclusive: 20.6 µM [inhibitor, single point].

Q: Which Potency does the source give for `CC(C)(C)C(=O)Nc1sc2c(c1C#N)CCN(Cc1ccccc1)C2` here?
A: Its Potency is active: 23.1 µM.

Q: For `CC(C)(C)C1CCc2oc3ccc(NS(=O)(=O)c4cc(Cl)ccc4Cl)cc3c2C1` (stereo not given), which Potency is on record?
A: The Potency was inconclusive: 20.6 µM [inhibitor, single point].

Q: For `Cc1cccc(CSc2cn(CC(=O)N3CCCCC3)c3ccccc23)c1`, which Potency is on record?
A: The Potency was active: 20.6 µM.

Q: For `Cc1cc(C)c2sc(N(Cc3cccnc3)C(=O)CCS(=O)(=O)c3ccccc3)nc2c1`, which Potency is on record?
A: Its Potency is active: 2.91 µM.

Q: With `CS(=O)(=O)c1ccccc1-c1nnc(NC(=O)CCS(=O)(=O)c2ccc(Cl)cc2)o1` as the compound, how does the Potency read?
A: The Potency was inconclusive: 20.6 µM [inhibitor, single point].

Q: For `Cc1cc2nc(C3CCCN(C(=S)Nc4ccccc4C)C3)[nH]c2cc1C` (stereo not given), which Potency is on record?
A: The Potency was inconclusive: 25.9 µM [inhibitor, partial curve].

Q: For `O=S(=O)(c1ccccc1)C(/C=N\O)/C=C/c1ccccc1` (stereo not given), which Potency is on record?
A: The Potency was inconclusive: 20.6 µM [inhibitor, single point].

Q: Which “activity change, negative = growth inhibition” value does the source give for `O=C1CS(=O)(=O)N(Cc2ccc(F)cc2)c2ccccc21` here?
A: The value was inactive: -22.6%.

Q: For `O=C(Nc1ccccc1N1CCOCC1)c1cnccn1`, which Potency is on record?
A: Its Potency is inconclusive: 29.1 µM [inhibitor, single point].

Q: With `CCOCCn1c(=O)c2c(nc3n2CCN3c2ccc(CC)cc2)n(C)c1=O` as the compound, how does the Potency read?
A: The Potency was inconclusive: 13 µM [inhibitor, partial curve].

Q: For `CCOc1ccc(/C=N/NC(=O)c2cc3ccccc3cc2OC)cc1`, which Potency is on record?
A: Its Potency is inconclusive: 29.1 µM [inhibitor, single point].

Q: With `Cc1ccc(C2C(C(=O)c3cc4ccccc4o3)=C(O)C(=O)N2CCN2CCOCC2)o1` (stereo not given) as the compound, how does the Potency read?
A: Its Potency is inconclusive: 16.4 µM [inhibitor, single point].

Q: For `c1ccc2c(-c3cc(C4CCNCC4)[nH]n3)cccc2c1`, which Potency is on record?
A: Its Potency is inconclusive: 29.1 µM [inhibitor, single point].

Q: For `CC1CCCC(C)N1C(=O)COC(=O)c1cccc(S(=O)(=O)N(C)c2ccccc2)c1` (stereo not given), which Potency is on record?
A: The Potency was inconclusive: 18.4 µM [inhibitor, partial curve].

Q: For `Cc1ccc2[nH]nc(C(=O)N3CCOc4ccc(CN5CCc6sccc6C5)cc4C3)c2c1`, which Potency is on record?
A: The Potency was inconclusive: 18.4 µM [inhibitor, single point].

Q: With `O=C(c1cc2c(=O)n3ccccc3nc2s1)N1CCN(Cc2ccccc2)CC1` as the compound, how does the Potency read?
A: Its Potency is inconclusive: 29.1 µM [inhibitor, single point].

Q: Which Potency does the source give for `COc1cc(/C=C/C(=O)Nc2ccc(C(C)=O)cc2)cc(OC)c1OC` here?
A: Its Potency is active: 20.6 µM.

Q: With `O=S(=O)(NC1CCc2ccccc21)c1ccccc1` (stereo not given) as the compound, how does the Potency read?
A: Its Potency is inconclusive: 29.1 µM [inhibitor, single point].

Q: Which “activity change, negative = growth inhibition” value does the source give for `O=C(COc1coc(CN2CCN(c3ccccc3)CC2)cc1=O)Nc1ccc(F)cc1` here?
A: The value was inactive: -27.5%.

Q: For `Cc1c(Cl)c([N+](=O)[O-])nn1CCCC(=O)Nc1sc2c(c1C#N)CCC2`, which “activity change, negative = growth inhibition” value is on record?
A: The value was inactive: -23.3%.

Q: With `COc1cccc(NC(=O)C2CCN(S(=O)(=O)c3ccc4c(c3)NC(=O)CO4)CC2)c1` as the compound, how does the Potency read?
A: Its Potency is inconclusive: 29.1 µM [inhibitor, single point].

Q: For `CSc1ccccc1C(=O)Nc1cccc(C(C)=O)c1`, which Potency is on record?
A: The Potency was inconclusive: 16.4 µM [inhibitor, single point].

Q: Which Potency does the source give for `CC(O)CNc1nc2ccccc2n1-c1ncnc2sc3c(c12)CCC3` (stereo not given) here?
A: Its Potency is active: 29.1 µM.

Q: For `COc1ccccc1N(CC(=O)NCCSCc1ccccc1Cl)S(C)(=O)=O`, which Potency is on record?
A: Its Potency is inconclusive: 29.1 µM [inhibitor, single point] and inconclusive: 25.9 µM [inhibitor, single point].

Q: Which “activity change, negative = growth inhibition” value does the source give for `Cc1cccc(C(=O)Nc2nnc(-c3ccncc3)o2)c1` here?
A: The value was inactive: -4.64%.

Q: With `Cc1nc2nc(CNC(=O)OC(C)(C)C)nn2c(C)c1CCC(=O)Nc1ccc2c(c1)OCO2` as the compound, how does the “activity change, negative = growth inhibition” value read?
A: Its value is inactive: 0.022%.

Q: For `COc1ccc(CN(C)C2c3ccccc3-c3ccccc32)cc1`, which Potency is on record?
A: The Potency was inconclusive: 18.4 µM [inhibitor, partial curve, poor fit].

Q: With `CC(=O)Nc1nc(-c2ccccc2)c(-c2ccccc2)o1` as the compound, how does the “activity change, negative = growth inhibition” value read?
A: The value was inactive: -19.7%.

Q: With `O=C1CC(/C=C/c2ccccn2)=Nc2ccccc2N1` as the compound, how does the Potency read?
A: Its Potency is active: 14.6 µM.

Q: Which Potency does the source give for `O=C(CO/N=C1\CCCc2nonc21)Nc1ccc(Br)cc1` here?
A: Its Potency is inconclusive: 18.4 µM [inhibitor, single point].

Q: For `Cc1ccc(-c2cc(C(F)(F)F)n3nc(C(=O)NCCCn4ccnc4)cc3n2)cc1C`, which Potency is on record?
A: The Potency was inconclusive: 29.1 µM [inhibitor, single point].

Q: Which “activity change, negative = growth inhibition” value does the source give for `CCOc1ccc(N(c2nc(-c3ccc(OC)c(OC)c3)no2)c2nc(-c3ccc(OC)c(OC)c3)no2)cc1` here?
A: Its value is inactive: 0.784%.

Q: For `CCC(=O)Nc1cccc(-c2cnc3ccccc3n2)c1`, which Potency is on record?
A: The Potency was inconclusive: 29.1 µM [inhibitor, partial curve].

Q: Which Potency does the source give for `CCOc1cc(/C=C2\N=C(SC)SC2=O)cc([N+](=O)[O-])c1OC(C)=O` here?
A: The Potency was inconclusive: 29.1 µM [inhibitor, single point].

Q: With `Cc1nn(CC(=O)NCc2cc3ccccc3[nH]2)c(C)c1[N+](=O)[O-]` as the compound, how does the “activity change, negative = growth inhibition” value read?
A: Its value is inactive: -20.5%.

Q: Which Potency does the source give for `CCC(Sc1nc2ccccc2o1)C(=O)Nc1nnc(C)s1` (stereo not given) here?
A: The Potency was inconclusive: 29.1 µM [inhibitor, single point].

Q: For `O=C(Nc1ccccc1)N1CCc2ccccc21`, which Potency is on record?
A: Its Potency is inconclusive: 10.3 µM [inhibitor, partial curve].

Q: Which Potency does the source give for `Oc1cc2ccccc2nc1-c1ccccc1Cl` here?
A: Its Potency is inconclusive: 0.411 µM [inhibitor, full curve, poor fit].

Q: Which Potency does the source give for `CN(C)c1ccc(C(CNC(=O)c2ccc(F)cc2)c2c[nH]c3ccccc23)cc1` (stereo not given) here?
A: Its Potency is inconclusive: 29.1 µM [inhibitor, single point].

Q: For `O=C(c1cccc(C(F)(F)F)c1)C1CCCN(Cc2cccc(OCCO)c2)C1` (stereo not given), which Potency is on record?
A: The Potency was active: 10 µM.

Q: Which Potency does the source give for `CCc1ccc(CNC(=O)C2CCCN(S(=O)(=O)N(CC)c3ccccc3)C2)cc1` (stereo not given) here?
A: Its Potency is inconclusive: 18.4 µM [inhibitor, single point].

Q: For `Cc1oc(-c2cccc(Br)c2)nc1CN1CCC(C(=O)NCCc2ccc(Cl)cc2)CC1`, which Potency is on record?
A: Its Potency is inconclusive: 10.3 µM [inhibitor, partial curve, poor fit].

Q: For `CCOc1ccc(/C=N/OCC(=O)Nc2ccc3c(c2)OCO3)cc1`, which Potency is on record?
A: Its Potency is inconclusive: 29.1 µM [inhibitor, single point].

Q: Which Potency does the source give for `Cc1cc(Cl)ccc1C(=O)C1CCCN(C(=O)c2snnc2C)C1` (stereo not given) here?
A: The Potency was inconclusive: 29.1 µM [inhibitor, single point].

Q: With `CCOc1ccccc1NC(=O)C(CC(C)C)NS(=O)(=O)c1ccc2c(c1)CCN2C(C)=O` (stereo not given) as the compound, how does the “activity change, negative = growth inhibition” value read?
A: Its value is inactive: -16.2%.

Q: Which Potency does the source give for `O=S1(=O)CCN(Cc2cccc(C(F)(F)F)c2)CC1` here?
A: Its Potency is inconclusive: 29.1 µM [inhibitor, single point].

Q: Which “activity change, negative = growth inhibition” value does the source give for `Cc1ccc(C)c(NC(=O)c2ccc3nccnc3c2)c1` here?
A: The value was inactive: -24.9%.

Q: Which Potency does the source give for `CCOc1ccc(S(=O)(=O)N2CCCCC2)cc1NC(=O)CN1C(=O)NC(C)(c2ccccc2)C1=O` (stereo not given) here?
A: The Potency was inconclusive: 14.6 µM [inhibitor, single point].

Q: Which Potency does the source give for `COC(=O)c1sc(-c2ccc(C(C)(C)C)cc2)cc1NC(=O)CSCC(=O)O` here?
A: The Potency was inconclusive: 29.1 µM [inhibitor, single point].

Q: Which Potency does the source give for `CC1CCCCC1NC(=O)COc1ccc(C#N)cc1` (stereo not given) here?
A: The Potency was inconclusive: 20.6 µM [inhibitor, partial curve].

Q: For `Cc1ccc(-c2cc(C(=O)N/N=C/c3ccco3)n[nH]2)s1`, which Potency is on record?
A: Its Potency is inconclusive: 6.51 µM [inhibitor, partial curve].

Q: For `CCCCOC(=O)Nc1ccc(C)c(Cl)c1`, which Potency is on record?
A: Its Potency is inconclusive: 16.4 µM [inhibitor, single point].

Q: With `COC(=O)C1=C(C)N(CCc2c[nH]c3ccccc23)C(=O)C1` as the compound, how does the Potency read?
A: Its Potency is inconclusive: 29.1 µM [inhibitor, single point].

Q: With `O=C(CCN1C(=O)/C(=C\c2ccccc2)SC1=S)NCCCN1CCOCC1` as the compound, how does the Potency read?
A: Its Potency is inconclusive: 29.1 µM [inhibitor, single point].

Q: With `O=C(NCC(c1cccs1)N1CCOCC1)c1ccco1` (stereo not given) as the compound, how does the Potency read?
A: The Potency was inconclusive: 29.1 µM [inhibitor, single point].

Q: For `CCc1ccc(Nc2nc(N)nc(CSc3nnnn3-c3ccccc3)n2)cc1`, which Potency is on record?
A: The Potency was inconclusive: 18.4 µM [inhibitor, partial curve].

Q: Which “activity change, negative = growth inhibition” value does the source give for `Cc1ccc(C2CC(c3ccco3)n3nc(N)nc3N2)cc1` (stereo not given) here?
A: Its value is inactive: 1.43%.

Q: With `CC(=O)Nc1c(Cl)cc2c(c1Cl)Cc1cc(C#N)ccc1-2` as the compound, how does the “activity change, negative = growth inhibition” value read?
A: The value was inactive: -26%.

Q: Which Potency does the source give for `COc1ccc(Nc2cc(Sc3ccc(OC)cc3)ncn2)cc1` here?
A: The Potency was active: 16.4 µM.

Q: For `CCc1ccccc1NC(=O)Cn1ncc2c(C)n(Cc3ccccc3F)c(C)c2c1=O`, which Potency is on record?
A: The Potency was inconclusive: 29.1 µM [inhibitor, single point].

— PubChem BioAssay AID686978 (National Center for Advancing Translational Sciences (NCATS), 2013)
